Test results reported in PubChem BioAssay AID651820 (National Center for Advancing Translational Sciences (NCATS), 2012).
Among all 340,000 compounds or so, about 12,000 (3.5%) were called active. Inconclusive means that the source gave no clear call. Such entries were picked first, then a sample of the others. Calls come from the whole dose curve; as a rule, active = well fitted inhibition curve with a large enough effect; inconclusive = small, poorly fitted or top-dose-only effect, or another doubt; inactive = no such curve, though single readings can be large or run the other way. No potency is given beside an inconclusive call; the fits are too rough.

Experiment: qHTS Assay for Inhibitors of Hepatitis C Virus (HCV)
Conditions: Huh7.5.1 HCVcc-Cre (HCVcc is cell-culture hepatitis C virus) infection, luciferase reporter, 44 h; series mostly up to 41.8 µM
In short: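 Whole-lifecycle infectious HCVcc-Cre system; cells 1,000/well, compound then virus (~0.5 moi) added 4 h after plating, 44 h culture. Luciferase read 15 sec following 15 min substrate incubation, room temp.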
Potency is the fitted concentration of half-maximal effect; tags give direction and shape of the fitted curve.

Row | SMILES | Potency
1 | Clc1ccccc1-c1nn2c(-c3ccncc3)nnc2s1 | inconclusive [inhibitor, partial curve, poor fit]
2 | CCn1nnc(NC(=O)CSc2ccc(Cl)cc2)n1 | inconclusive [inhibitor, single point]
3 | CC(C)Sc1nc(NCc2ccco2)c2c3c(sc2n1)COC(C)(C)C3 | inconclusive [inhibitor, partial curve]
4 | O=[N+]([O-])c1cccc(NC(=S)NCCc2ccccc2)c1 | active: 12.6 µM
5 | CC(C)Nc1cc(C(F)(F)F)nc(-c2ccccn2)n1 | inconclusive [inhibitor, partial curve, poor fit]
6 | CCOCCCNc1nc(C)nc2c1nnn2Cc1c(F)cccc1Cl | inconclusive [inhibitor, full curve]
7 | COc1cc(NC(=O)CSc2nnc(-c3ccncc3)n2C2CCCCC2)ccc1NC(=O)c1ccco1 | inconclusive [inhibitor, full curve]
8 | Cc1ccc(O)c(C(=O)c2cnn(-c3ccccc3)c2)c1 | inconclusive [inhibitor, partial curve]
9 | O=C(Nc1ccn(Cc2ccccc2F)n1)c1ccc(COc2ccc(Cl)cc2Cl)o1 | inconclusive [inhibitor, partial curve]
10 | COC(=O)c1ccc(C)c(NC(=O)C2CC(=O)N(C3CCCC(C)C3C)C2)c1 (stereo not drawn) | inconclusive [inhibitor, single point]
11 | Cc1cccc(NC(=O)CCN2C(=O)c3ccccc3C2=O)c1 | inactive
12 | CC1CCCCN1C(=O)c1cccc(NC2=C(Cl)C(=O)N(Cc3ccccc3)C2=O)c1 (stereo not drawn) | inconclusive [inhibitor, partial curve]
13 | CC(C)N(C(=O)COC(=O)CCC(=O)c1cccs1)c1ccccc1 | inactive
14 | N#CCCn1c(O)c(N=NC(=O)CNC(=O)c2cccs2)c2ccccc21 | inconclusive [inhibitor, single point]
15 | Cc1cccc(NCc2cc(Cl)ccc2O)n1 | inactive
16 | COc1ccc2[nH]c3c(NCCCOC(C)C)ncnc3c2c1 | active: 11.2 µM
17 | CC(NC(=O)c1cccc(OC2CCN(C(=O)C3CC3)CC2)c1)c1ccc(F)cc1 (stereo not drawn) | inconclusive [inhibitor, partial curve, poor fit]
18 | Fc1ccc(C2=NN(c3ccccc3)C(c3ccco3)C2)cc1 (stereo not drawn) | inconclusive [inhibitor, single point]
19 | COc1cc(C(=O)Nc2cccc(-c3nc4ncccc4o3)c2C)cc(OC)c1OC | inconclusive [inhibitor, single point]
20 | CN(CCc1ccccc1)C(=O)c1ccc(NC(=O)Cc2cccc([N+](=O)[O-])c2)cc1 | inactive
21 | O=C(CNC(=O)c1ccc(S(=O)(=O)N2CCCC2)cc1)N/N=C/c1c(Cl)cccc1Cl | inconclusive [inhibitor, single point]
22 | N#C/C(=C\c1c(N(Cc2ccccc2)Cc2ccccc2)nc2ccccn2c1=O)C(N)=O | inactive
23 | COc1cc(OC)cc(-c2nc(-c3ccccc3OC)no2)c1 | inconclusive [inhibitor, partial curve]
24 | COc1ccc2c(C)cc(N3CCCCCC3)nc2c1 | inconclusive [inhibitor, partial curve]
25 | CCOc1ccc(OCc2cccc(C(=O)N(CC)CC)c2)cc1 | inconclusive [inhibitor, single point]

Row | SMILES | Potency
26 | CC1CC(=O)Nc2ccccc2N1C(=O)COc1ccc2cc(Br)ccc2c1 (stereo not drawn) | inconclusive [inhibitor, single point]
27 | O=S1(=O)CCOC[C@H](CC2CCCCC2)N1Cc1ccccc1F | inconclusive [inhibitor, single point]
28 | O=C(CSc1nc2ccccc2c(=O)n1CCCN1CCOCC1)NCCc1ccccc1 | inactive
29 | Cn1ccc(C(=O)Nc2ccc(Br)cc2Br)n1 | inconclusive [inhibitor, single point]
30 | CCOC(=O)CSc1nc(C)c2ccc(C)cc2n1 | inconclusive [inhibitor, partial curve]
31 | Cc1cc(C)c2cc(C(=O)Nc3ccc4c(c3)OCO4)[nH]c2c1 | inconclusive [inhibitor, partial curve]
32 | O=C(C1CCN(c2nnc(-n3cccc3)s2)CC1)N1CCN(c2cccc(C(F)(F)F)c2)CC1 | inconclusive [inhibitor, full curve]
33 | Cc1cccc(Nc2nc(N)c([N+](=O)[O-])c(N3CCC(C)CC3)n2)c1 | inconclusive [inhibitor, partial curve]
34 | COc1ccc(-c2cc(C(=O)N3CCN(c4ncccn4)CC3)c3ccccc3n2)cc1 | inconclusive [inhibitor, partial curve]
35 | Cc1c(NC(=O)C(C)Sc2ccccc2)c(=O)n(-c2ccccc2)n1C (stereo not drawn) | inactive
36 | COc1ccc(-c2cn(CCN)c(-c3ccncc3)n2)cc1 | inconclusive [inhibitor, full curve]
37 | CC(=O)N1c2ccc(S(=O)(=O)N3CCCC3)cc2CC1C(=O)Nc1cc(C)cc(C)c1 (stereo not drawn) | inconclusive [inhibitor, single point]
38 | CCOC(=O)c1[nH]c2ccc(Br)cc2c1NC(=O)CCN1CCOCC1 | inactive
39 | Cc1ccc(N(CC(O)COCc2ccco2)S(=O)(=O)c2ccc(C)cc2)cc1 (stereo not drawn) | inactive
40 | Cc1ccc(Nc2nc3c([nH]2)c(=O)n(C)c(=O)n3C)cc1 | inconclusive [inhibitor, single point]
41 | COc1cc2oc(=O)cc(-c3ccc(-c4ccc(O)cc4)cc3)c2c(OC)c1OC | inconclusive [inhibitor, single point]
42 | Cc1cc(C)cc(OCC(=O)Nc2cnn(CCCC(=O)O)c2)c1 | inactive
43 | CCN(CC)C(=O)CSc1nc2ccc(NC(=O)CSc3nnc(N)s3)cc2s1 | inconclusive [inhibitor, partial curve]
44 | CCOC(=O)c1sc(=NC(=O)COc2ccccc2)n(C)c1C | inactive
45 | COc1ccccc1C(=O)COC(=O)c1ccccc1OCC(=O)Nc1ccc(SC(F)F)cc1 | inconclusive [inhibitor, partial curve]
46 | O=C(N/N=C/c1cn(Cc2ccccc2)c2ccccc12)c1cccnc1 | inconclusive [inhibitor, single point]
47 | Cc1cc(C)c(C(=O)CSc2nnc(C)c(=O)[nH]2)cc1C | inactive
48 | COc1cc2[nH]c(C(=O)N3CCN(C)CC3)cc2c(OC)c1OC | inactive
49 | CCC(=O)N1CCN(c2ccc(NC(=O)c3ccc([N+](=O)[O-])o3)cc2Cl)CC1 | inconclusive [inhibitor, single point]
50 | NC(=O)Nn1c(CCC(=O)O)ccc1-c1ccc(Cl)cc1 | inactive

Row | SMILES | Potency
51 | CC(C)Cn1c(SCC(=O)NCc2ccc(Cl)cc2)nnc1-c1cccc(S(=O)(=O)N2CCOCC2)c1 | inconclusive [inhibitor, single point]
52 | Cc1cccc(N2C(=O)/C(=C/N3CCN(C(=O)c4ccco4)CC3)C(=O)NC2=S)c1 | inactive
53 | O=C(COC(=O)c1ccc2c(c1)C(=O)N(c1cccc3ncccc13)C2=O)c1ccc(Cl)cc1 | inactive
54 | CCCCn1c(N)c(N(CCOC)C(=O)CSc2nc3ccc(C)cc3[nH]2)c(=O)[nH]c1=O | inactive
55 | Cc1ccc(NC(=O)Cn2c(=O)c(C)nc3ccccc32)cc1 | inactive
56 | CN(c1ccccc1)P(=O)(N(C)c1ccccc1)N(C)c1ccccc1 | inactive
57 | CCOC(=O)c1[nH]c2ccc(F)cc2c1NC(=O)CN1CCN(C/C=C/c2ccccc2)CC1 | active: 10 µM
58 | COc1ccccc1-c1ccc(SCC(=O)Nc2cc(C)on2)nn1 | inactive
59 | CC1(C)Cc2ccccc2-c2nnc(SCc3ccccc3)n21 | inactive
60 | Cc1cccc(C(=O)OC(C)CN2C(C)CCCC2C)c1 (stereo not drawn) | inactive
61 | Cc1ccc2nc(N3CCN(Cc4nnnn4Cc4ccccc4)CC3)c(C#N)cc2c1 | inconclusive [inhibitor, single point]
62 | c1ccc2c(NC3CCCC3)nnc(NC3CCCC3)c2c1 | inconclusive [inhibitor, single point]
63 | COc1cc2c(cc1OC)C(C)=NCC2 | inactive
64 | Cc1ccc(Nc2ncnc3c2nnn3Cc2ccccc2)cc1 | inconclusive [inhibitor, partial curve]
65 | CCOC(=O)c1cccc(NC(=O)COc2nsnc2N2CCOCC2)c1 | inconclusive [inhibitor, single point]
66 | O=C(COC(=O)CNC(=O)c1cccc([N+](=O)[O-])c1)Nc1cccc(S(=O)(=O)N2CCCC2)c1 | inactive
67 | Cc1cc(N2CCCC(C(=O)Nc3ccc4c(c3)CCC4)C2)n2ncnc2n1 (stereo not drawn) | inconclusive [inhibitor, single point]
68 | COc1ccccc1C(=O)NC(=O)COC(=O)c1nc2nc(C)cc(C)n2n1 | inactive
69 | NC(=S)N/N=C1\CC(c2ccc3c(c2)OCCCO3)Oc2ccc(F)cc21 (stereo not drawn) | active: 8.91 µM
70 | O=C(O)CCC1(C(=O)O)CCC(=O)c2ccccc21 (stereo not drawn) | inactive
71 | O=C(NN=Cc1cc(=O)[nH]c(=O)[nH]1)c1ccncc1 | inactive
72 | COc1ccc2cc(Br)ccc2c1CC(=O)NCCCN1CCOCC1 | inconclusive [inhibitor, partial curve, poor fit]
73 | O=C(Nc1ccc(-c2cn3ccsc3n2)cc1)C1COc2ccccc2O1 (stereo not drawn) | active: 14.1 µM
